Results taken from PubChem BioAssay AID485360 (National Center for Advancing Translational Sciences (NCATS), 2010).
Among all 230,000 compounds or so, about 1,500 (0.65%) were called active. Inconclusive results, whose numbers are uncertain, are shown with a selection of clear calls. Calls follow the shape of the dose curve; as a rule, active = well fitted inhibition curve with a large enough effect; inconclusive = small, poorly fitted or top-dose-only effect; inactive = no such curve, though single readings can be large or run the other way. Where the call is inconclusive, the potency comes from a doubtful curve fit.

The molecules below were run against Lethal(3)malignant brain tumor-like protein 1 (Homo sapiens) (UniProt Q9Y468) (assay: qHTS Assay for the Inhibitors of L3MBTL1). Conditions: AlphaScreen L3MBTL1–H3K9me1 peptide binding; activity, negative = inhibition: at 57.1 µM (top of the series).
UniProt Q9Y468, sequence (Q9Y468 whole entry, looked up): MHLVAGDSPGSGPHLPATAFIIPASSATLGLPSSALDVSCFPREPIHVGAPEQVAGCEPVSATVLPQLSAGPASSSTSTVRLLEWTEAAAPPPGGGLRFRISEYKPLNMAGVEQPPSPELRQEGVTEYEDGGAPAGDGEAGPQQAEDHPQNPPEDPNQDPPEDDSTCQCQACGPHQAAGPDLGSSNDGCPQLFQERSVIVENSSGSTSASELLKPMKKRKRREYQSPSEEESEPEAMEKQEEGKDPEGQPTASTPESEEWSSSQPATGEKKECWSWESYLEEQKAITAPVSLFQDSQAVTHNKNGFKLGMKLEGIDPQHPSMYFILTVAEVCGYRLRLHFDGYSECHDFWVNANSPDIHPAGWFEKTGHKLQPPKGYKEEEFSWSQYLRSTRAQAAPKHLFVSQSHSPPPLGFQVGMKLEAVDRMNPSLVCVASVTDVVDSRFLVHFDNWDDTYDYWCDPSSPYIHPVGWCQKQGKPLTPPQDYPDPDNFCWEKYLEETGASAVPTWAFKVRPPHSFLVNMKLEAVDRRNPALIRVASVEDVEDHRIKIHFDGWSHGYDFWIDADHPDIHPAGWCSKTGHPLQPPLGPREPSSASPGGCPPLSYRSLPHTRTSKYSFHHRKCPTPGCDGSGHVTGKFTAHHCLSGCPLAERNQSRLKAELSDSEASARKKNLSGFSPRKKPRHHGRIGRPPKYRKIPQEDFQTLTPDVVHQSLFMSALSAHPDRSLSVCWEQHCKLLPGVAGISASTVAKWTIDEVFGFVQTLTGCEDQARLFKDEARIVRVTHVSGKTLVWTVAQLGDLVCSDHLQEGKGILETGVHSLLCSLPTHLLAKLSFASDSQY
Outline: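 L3MBTL1 (50 nM) pre-complexed 30 min with biotinylated H3(1-15)K9me1 peptide (75 nM), then compounds added for 30 min at room temperature; AlphaScreen streptavidin donor/nickel chelate acceptor beads (10 ug/mL final) read after 30 min dark incubation.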
% is scaled to controls: 0 for no effect and ±100 for the full control effect; potency is read from the fitted curve at half-maximal effect; tags tell the direction and shape of the fitted curve.
Also: nearly all actives have a fitted effect of over 60% in size.

Row | SMILES | activity, negative = inhibition | Potency
1 | O=C(O)c1cccc(CN2C(=O)SC(Nc3ccccc3)C2=O)c1 (stereo not given) | inactive: -1.73% | 
2 | CCOc1cc(N2CCOCC2)c(OCC)cc1NC(=O)c1ccccc1 |  | inconclusive: 20 µM [inhibitor, partial curve]
3 | O=C(Nc1nnc(Cc2ccc(Cl)cc2)s1)c1ccncc1 |  | inconclusive: 22.4 µM [inhibitor, partial curve]
4 | Cc1nnc(C)n1/N=C/C=C/c1ccccc1 | inactive: 0.837% | 
5 | Cc1csc2ncc(C(=O)NCc3ccco3)c(=O)n12 |  | inconclusive: 6.31 µM [inhibitor, single point]
6 | CCc1ccc(NS(=O)(=O)c2ccc3[nH]cc(C(=O)N4CCc5ccccc54)c(=O)c3c2)cc1 |  | inconclusive: 22.4 µM [inhibitor, single point]
7 | CSc1nnc2c(n1)c(C)nn2-c1cccc(C)c1 |  | inconclusive: 17.8 µM [inhibitor, partial curve]
8 | COc1ccc(/C(O)=C2/C(=O)C(=O)N(CCN(C)C)C2c2ccc(C)cc2)cc1Cl (stereo not given) | inactive: 0.615% | 
9 | COc1cc(/C=C/C(=O)O)cc2c1OCCO2 |  | inconclusive: 39.8 µM [inhibitor, single point]
10 | C=CCn1c(C(C)NC(=O)CCC)nc2ccccc21 (stereo not given) |  | inconclusive: 3.98 µM [inhibitor, full curve]
11 | CNc1nnc(SCC(=O)c2cc(C)n(C3CC3)c2C)s1 |  | inconclusive: 28.2 µM [inhibitor, single point]
12 | Cc1ccc(N(C(C)C(=O)NCc2ccncc2)S(C)(=O)=O)cc1C (stereo not given) |  | inconclusive: 0.1 µM [inhibitor, full curve, poor fit]
13 | CC(c1nnnn1C1CCCCC1)N(Cc1ccccc1)Cc1cccnc1 (stereo not given) |  | inconclusive: 7.08 µM [inhibitor, single point]
14 | CCc1cccc(Nc2cc(C)nc3nc(C)nn23)c1 |  | inconclusive: 0.708 µM [inhibitor, single point]
15 | COc1cc(-c2cc(=O)c3c(O)c(OC)c(OC)c(O)c3o2)ccc1O |  | inconclusive: 14.1 µM [inhibitor, partial curve]
16 | CC1(C)Cn2c(nc(=O)c3c2NCN(CCc2ccccc2)C3)S1 |  | inconclusive: 0.141 µM [inhibitor, full curve, poor fit]
17 | O/N=C\c1ccccc1Oc1ccc(F)cc1 |  | inconclusive: 28.2 µM [inhibitor, single point]
18 | Cc1cccc(-c2n[nH]c(=S)n2-c2ccccc2)c1[N+](=O)[O-] | inactive: 8.86% | 
19 | O=C(O)c1ccc(N2C(=O)CC(SC(=Nc3ccccc3)Nc3ccccc3)C2=O)cc1 (stereo not given) | inactive: 8.37% | 
20 | CNC(=O)c1sccc1Oc1ccc(F)cc1[N+](=O)[O-] |  | inconclusive: 8.91 µM [inhibitor, single point]
